{
  "source": "PubChem BioAssay AID445",
  "about": "(National Center for Advancing Translational Sciences (NCATS), 2006)",
  "note": "Screen size: about 110,000 compounds; about 40 (0.04%) were called active. The shares of active, inactive and inconclusive entries below differ from those in the screen. Calls come from the whole dose curve; as a rule, active = well fitted curve in the direction sought with a large enough effect in the signal ratio (not every such curve was filed as active); inconclusive = small, poorly fitted or top-dose-only effect, or a change in a side signal; inactive = flat fitted curve, though single readings scatter; the % refers to the signal ratio. Potencies beside an inconclusive call are fits to weak or partial responses and may not hold up. Potency is the fitted concentration of half-maximal effect.",
  "data": [
    {"test": "IkB Signaling;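 for IkBa stabilization activation: 0% = basal untreated cells and 100% = reference inhibitor full response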", "settings": "ABC-DLBCL IkBa-CBG/CBR dual luciferase ratio (green luciferase fused to IkBa over red control in OCI-Ly3 lymphoma cells), 4 h; IkBa stabilization activation: at 57.1 µM (top of the series), scaled: untreated 0%, proteasome inhibitor 100% unless noted", "summary_of_the_method": "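In this assay, an IκBα–CBG68 fusion accumulates when IKK-driven degradation is blocked; native CBR normalizes for cell number. OCI-Ly3 cells were treated 4 h with compound and doxycycline, then green and red light read after Chroma-Glo addition.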", "values": [
      {"smiles": "FC(F)(F)c1cc(NC(=S)N2c3ccccc3-n3cccc3[C@H]2c2cccnc2)cc(C(F)(F)F)c1", "IkBa stabilization activation": "inactive: -1.93% [at 11.4 µM, scaled: untreated 0%, proteasome inhibitor 100%]"},
      {"smiles": "O=c1ccc2c(o1)/C(=C/C=C(Cl)Cl)CCC2", "IkBa stabilization activation": "inactive: 3.52%"},
      {"smiles": "COc1ccccc1N1CCN(C(=O)c2cc3c(=O)n(Cc4ccco4)ccc3nc2C)CC1", "IkBa stabilization activation": "inactive: 0.165%"},
      {"smiles": "CCOc1ccc(NC(=O)CCn2cnc3onc(-c4ccc(F)cc4)c3c2=O)cc1", "IkBa stabilization activation": "inconclusive: 2.19% [signal inhibitor]"},
      {"smiles": "Cc1cccc(C)c1NC(=O)Cn1c(=O)n(CC2CCC(C(=O)NCCc3ccccc3)CC2)c(=O)c2ccccc21", "note": "(stereo not given)", "Potency": "inconclusive: 25.1 µM [signal inhibitor, single point]"},
      {"smiles": "CCOC(=O)C1CCN(C(=O)C2CCN(C3=NS(=O)(=O)C(c4ccc(C)cc4)=C3CC)CC2)CC1", "IkBa stabilization activation": "inactive: 1.34%"},
      {"smiles": "CCOC(=O)CSc1nc2c(sc3ccccc32)c(=O)n1CCc1ccccc1", "IkBa stabilization activation": "inconclusive: -0.784% [signal inhibitor]"},
      {"smiles": "O=[N+]([O-])c1cc(-c2nc(-c3ccccc3)no2)ccc1N1CCN(c2ccccc2)CC1", "Potency": "inconclusive: 25.1 µM [signal inhibitor, partial curve]"},
      {"smiles": "CSc1ccc(S(=O)(=O)Nc2c(C)cccc2C)cc1", "IkBa stabilization activation": "inconclusive: 4.64% [signal inhibitor]"},
      {"smiles": "Cc1cc(N2CCN(C(c3ccccc3)c3ccccc3)CC2)n2ncnc2n1", "IkBa stabilization activation": "inactive: 1.54%"},
      {"smiles": "CC(=O)c1ccc(S(=O)(=O)Nc2cccc(-c3ccc(N4CCCCC4)nn3)c2)cc1", "IkBa stabilization activation": "inconclusive: 2.62% [signal inhibitor]"},
      {"smiles": "Cc1ccc(OS(=O)Nc2cccc3nccnc23)cc1", "note": "(stereo not given)", "Potency": "inconclusive: 20 µM [rising, partial curve]"},
      {"smiles": "CCOc1ccc2nc(C)cc(Nc3ccccc3OCC)c2c1", "IkBa stabilization activation": "inactive: 0.284%"},
      {"smiles": "CCCOc1ccc(CNC(=O)C(CC)n2nc(C)c3sc4ccccc4c3c2=O)cc1", "note": "(stereo not given)", "IkBa stabilization activation": "inactive: -1.85%"},
      {"smiles": "COc1ccc(-c2cc3nc4n(c(=O)c3s2)CCC4)cc1", "IkBa stabilization activation": "inactive: 2.89%"},
      {"smiles": "Cc1ccc(C(=O)O)cc1Nc1nc2ccccc2n2nnnc12", "Potency": "inconclusive: 31.6 µM [signal inhibitor, partial curve]"},
      {"smiles": "COc1ccc(C(=O)n2nc(-c3ccccc3)nc2N)cc1OC", "IkBa stabilization activation": "inconclusive: 6.66% [signal inhibitor]"},
      {"smiles": "Oc1ccccc1-c1cc(-c2cccc(F)c2)n[nH]1", "Potency": "inconclusive: 31.6 µM [signal inhibitor, partial curve]"},
      {"smiles": "CCOc1ccc(NC(=O)c2ccncc2)cc1", "IkBa stabilization activation": "inactive: -0.912%"},
      {"smiles": "Cc1cccc(NC(=O)c2nc(S(C)(=O)=O)ncc2Cl)c1", "IkBa stabilization activation": "inconclusive: -3.55% [signal inhibitor]"},
      {"smiles": "Cc1cccc(NC(=O)CSc2nc(-c3ccco3)nc3cc(=O)[nH]n23)c1", "IkBa stabilization activation": "inconclusive: 4.33% [signal inhibitor]"},
      {"smiles": "Cc1cc(=O)oc2c1ccc1oc(/C(=N/O)c3ccccc3)c(C)c12", "IkBa stabilization activation": "inconclusive: -4.3% [signal inhibitor]"},
      {"smiles": "COC(=O)c1c(SC)nc2ccccc2c1OCc1ccccc1C", "IkBa stabilization activation": "inconclusive: -1.98% [signal inhibitor]"},
      {"smiles": "Cc1cccnc1Nc1nc(-c2ccc(O)cc2O)cs1", "IkBa stabilization activation": "inactive: 9.82%"},
      {"smiles": "CC(C)CCn1c(SCC#N)nc2c(sc3ccccc32)c1=O", "IkBa stabilization activation": "inactive: -1.23%"},
      {"smiles": "Cn1c(=O)c2c(ncn2CC(=O)Nc2cccc(C(F)(F)F)c2)n(C)c1=O", "IkBa stabilization activation": "inactive: 6.05%"},
      {"smiles": "CC(C)(C)C(=O)c1sc(Nc2ccccc2)nc1N", "IkBa stabilization activation": "inconclusive: 4.24% [signal inhibitor]"},
      {"smiles": "COc1ccc(-c2noc(CSc3nnc(-c4ccncc4)n3-c3ccc(C)cc3)n2)cc1OC", "IkBa stabilization activation": "inactive: -1.4%"},
      {"smiles": "O=C(CN1CCCCC1)Nc1nnc(-c2ccccc2)s1", "IkBa stabilization activation": "inconclusive: 8.4% [signal inhibitor]"},
      {"smiles": "NC(=O)c1cc2ccc(O)cc2oc1=NCc1ccccc1", "IkBa stabilization activation": "inconclusive: 7.25% [signal inhibitor]"},
      {"smiles": "CCOc1ccccc1NC(=O)c1c(NC(=O)c2ccccc2)sc2c1CCCC2", "IkBa stabilization activation": "inconclusive: 6.33% [signal inhibitor]"},
      {"smiles": "CCOc1ccccc1CNC(=O)c1cnc2sc(N3CCCCCC3)nn2c1=O", "IkBa stabilization activation": "inconclusive: -2.52% [signal inhibitor]"},
      {"smiles": "CCc1ccc(Oc2c(C(F)(F)F)oc3c(CN4CCN(C)CC4)c(O)ccc3c2=O)cc1", "IkBa stabilization activation": "inconclusive: 3.37% [signal inhibitor]"},
      {"smiles": "O=C(Cn1cc(SCc2cccc(Cl)c2)c2ccccc21)N1CCCCCC1", "IkBa stabilization activation": "inconclusive: -2.45% [signal inhibitor]"},
      {"smiles": "CCc1ccc(S(=O)(=O)NCCc2csc3nc(-c4ccccc4)nn23)s1", "IkBa stabilization activation": "inconclusive: 5.03% [signal inhibitor]"},
      {"smiles": "CC(C)(C)c1ccc(-c2nc3cc(NC(=O)c4cccc(Br)c4)ccc3o2)cc1", "IkBa stabilization activation": "inactive: -2.16%"},
      {"smiles": "COc1ccccc1CN(Cc1ccco1)c1cnc(S(C)(=O)=O)nc1C(=O)Nc1cc(C)ccc1C", "IkBa stabilization activation": "inconclusive: 2.66% [signal inhibitor]"},
      {"smiles": "O=C(NCCc1csc2nc(-c3ccc(F)cc3)nn12)c1cccc(C(F)(F)F)c1", "IkBa stabilization activation": "inconclusive: 1.05% [signal inhibitor]"},
      {"smiles": "COc1cccc(C(=O)NCc2nc(-c3ccccc3)no2)c1OC", "IkBa stabilization activation": "inconclusive: 0.143% [signal inhibitor]"},
      {"smiles": "Fc1ccc(Nc2ncncc2-c2ccoc2)cc1", "IkBa stabilization activation": "inactive: 4.89% [at 11.4 µM, scaled: untreated 0%, proteasome inhibitor 100%]"},
      {"smiles": "O=c1c2ccccc2nnn1CSc1nc2cc(Cl)ccc2c(=O)n1Cc1ccco1", "IkBa stabilization activation": "inactive: 2.38%"},
      {"smiles": "Cc1ccc(-c2noc(CCC(=O)N3CCN(c4cccc(C(F)(F)F)c4)CC3)n2)cc1", "IkBa stabilization activation": "inconclusive: 5.43% [signal inhibitor]"},
      {"smiles": "CCOC(=O)CNS(=O)(=O)c1cc(-c2nnc(Nc3cccc(O)c3)c3ccccc23)ccc1C", "IkBa stabilization activation": "inconclusive: 2.1% [signal inhibitor]"},
      {"smiles": "CCCc1ccc(C2Sc3ccccc3NC3=C2C(=O)c2ccccc23)cc1", "note": "(stereo not given)", "IkBa stabilization activation": "inconclusive: 7.27% [signal inhibitor]"},
      {"smiles": "COc1ccc(N2CCN(Cc3nc4c(c(=O)n(C)c(=O)n4C)n3CCc3ccccc3)CC2)cc1", "Potency": "inconclusive: 39.8 µM [signal inhibitor, single point]"}
    ]}
  ]
}
